{"source": "paper PMC4336329", "about": "(PLoS ONE, 2015)", "note": "In all, about 310,000 compounds went through this assay and about 14,000 (4.5%) showed an effect of 50% or more. The effect is printed as a negative number. The list shows a part of the results.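 Note: peak tail current of the secondary pulse compared with the same well before compound.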"}
{"biological_target": "human ether-à-go-go-related gene (hERG) potassium channel (human, UniProt Q12809)", "sequence (Q12809 whole entry, looked up)": "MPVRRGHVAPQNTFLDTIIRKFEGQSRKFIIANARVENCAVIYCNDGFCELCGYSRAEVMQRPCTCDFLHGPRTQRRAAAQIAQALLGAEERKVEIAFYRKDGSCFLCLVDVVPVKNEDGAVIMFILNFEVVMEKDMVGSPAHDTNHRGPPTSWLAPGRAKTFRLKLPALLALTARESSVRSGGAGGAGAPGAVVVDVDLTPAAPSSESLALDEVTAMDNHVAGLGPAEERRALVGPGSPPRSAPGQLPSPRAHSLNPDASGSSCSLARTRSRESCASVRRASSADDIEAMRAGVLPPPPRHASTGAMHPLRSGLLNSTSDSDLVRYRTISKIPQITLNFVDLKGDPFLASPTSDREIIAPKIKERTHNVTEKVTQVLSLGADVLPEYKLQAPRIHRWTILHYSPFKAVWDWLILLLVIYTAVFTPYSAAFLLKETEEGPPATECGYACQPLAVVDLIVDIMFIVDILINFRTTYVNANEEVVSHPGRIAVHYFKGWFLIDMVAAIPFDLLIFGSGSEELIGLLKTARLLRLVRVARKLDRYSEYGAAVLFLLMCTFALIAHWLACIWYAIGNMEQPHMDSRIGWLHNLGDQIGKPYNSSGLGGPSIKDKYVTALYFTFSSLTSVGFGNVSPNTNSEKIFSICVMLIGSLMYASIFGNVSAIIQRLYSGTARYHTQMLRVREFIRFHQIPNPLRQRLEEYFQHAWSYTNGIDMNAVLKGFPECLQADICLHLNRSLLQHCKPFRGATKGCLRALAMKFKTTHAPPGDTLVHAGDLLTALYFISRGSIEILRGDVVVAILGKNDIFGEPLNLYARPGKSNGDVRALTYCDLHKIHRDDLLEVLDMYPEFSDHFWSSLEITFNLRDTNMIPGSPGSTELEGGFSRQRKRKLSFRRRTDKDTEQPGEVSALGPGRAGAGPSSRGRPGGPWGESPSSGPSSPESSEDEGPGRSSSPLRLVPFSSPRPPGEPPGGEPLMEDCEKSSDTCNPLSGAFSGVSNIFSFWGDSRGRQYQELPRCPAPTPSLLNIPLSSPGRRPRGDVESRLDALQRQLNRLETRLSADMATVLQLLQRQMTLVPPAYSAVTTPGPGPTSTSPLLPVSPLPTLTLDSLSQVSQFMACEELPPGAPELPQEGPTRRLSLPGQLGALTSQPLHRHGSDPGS", "assay": "primary screen, population patch clamp on CHO cells stably expressing hERG", "units": {"hERG current change (%, negative = inhibition) at 10uM": "%"}}
{"smiles": "O=C(O)Cn1c(=O)c2c3c(sc2n(Cc2ccccc2F)c1=O)CCCC3", "hERG current change (%, negative = inhibition) at 10uM": 9.75}
{"smiles": "CSc1nnc(-c2sc3cc(C(F)(F)F)cnc3c2-c2cccnc2)n1C", "hERG current change (%, negative = inhibition) at 10uM": -26.1}
{"smiles": "CCc1nnc(SCC(=O)Nc2ccc(C(C)=O)cc2)nc1CC", "hERG current change (%, negative = inhibition) at 10uM": -8.24}
{"smiles": "COC(=O)CCC(=O)Nc1ccc(OC)cc1", "hERG current change (%, negative = inhibition) at 10uM": 4.9}
{"smiles": "O=C(Nc1cnccn1)c1cccs1", "hERG current change (%, negative = inhibition) at 10uM": -13.7}
{"smiles": "COc1ccc(/C=C/C(=O)c2ccc(O)cc2)cc1COc1ccc(F)cc1", "hERG current change (%, negative = inhibition) at 10uM": 8.81}
{"smiles": "COc1ccc2cc(CCNC(=O)C3CC3)c(=O)[nH]c2c1", "hERG current change (%, negative = inhibition) at 10uM": 11}
{"smiles": "CCOC(=O)CNC(=O)CSc1nnc(Cn2c(=O)sc3ccccc32)n1-c1ccccc1C", "hERG current change (%, negative = inhibition) at 10uM": -8.65}
{"smiles": "CCOC(=O)COc1ccc(CCNC(C)=O)cc1", "hERG current change (%, negative = inhibition) at 10uM": 15}
{"smiles": "Cc1ccc(COc2ccc(/C=N/NC(=O)c3ccc(CN4CCOCC4)cc3)cc2)cc1", "hERG current change (%, negative = inhibition) at 10uM": 9.35}
{"smiles": "COc1ccccc1NC(=O)N1CCN(c2cc(-c3ccccc3)nc3ncnn23)CC1", "hERG current change (%, negative = inhibition) at 10uM": -68.3}
{"smiles": "CCC(C)(C)NC(=O)CN(CCc1cccc(C)c1)C(=O)c1csnn1", "hERG current change (%, negative = inhibition) at 10uM": 18.1}
{"smiles": "CCCCN(CCNP(=O)(OCC)OCC)CP(=O)(OCC)OCC", "hERG current change (%, negative = inhibition) at 10uM": 2.18}
{"smiles": "O=C1CCC(C(=O)NC2(C(=O)NC3CCCCC3)CCCCC2)N1", "note": "(stereo not shown)", "hERG current change (%, negative = inhibition) at 10uM": 11.5}
{"smiles": "S=c1[nH]nc(CCSCc2ccccc2)n1-c1ccccc1", "hERG current change (%, negative = inhibition) at 10uM": 18.7}
{"smiles": "COc1ccccc1C(=O)NC(C(=O)NCCc1nc2ccccc2[nH]1)=C(C)C", "hERG current change (%, negative = inhibition) at 10uM": 16.2}
{"smiles": "CCOC(CCc1c(C)nc(NC(C)=O)[nH]c1=O)OCC", "hERG current change (%, negative = inhibition) at 10uM": 19.5}
{"smiles": "COC(=O)C(CCSC)NC(=O)CNC(=O)C1CCCCC1", "note": "(stereo not shown)", "hERG current change (%, negative = inhibition) at 10uM": 12.3}
{"smiles": "CN(C(=O)c1ccccc1C(=O)OCC(=O)c1ccc(Br)cc1)c1ccccc1", "hERG current change (%, negative = inhibition) at 10uM": -16.2}
{"smiles": "Cc1cccc(CSc2ncccc2C(=O)O)c1", "hERG current change (%, negative = inhibition) at 10uM": -3.28}
{"smiles": "CCOC(=O)c1nn(C23CC4CC(CC(C4)C2)C3)c2c1C(=O)N(c1ccc(C)cc1)C2=O", "hERG current change (%, negative = inhibition) at 10uM": 20.3}
{"smiles": "CC(NCc1ccc(Cl)cc1Cl)C(O)c1ccccc1.Cl", "note": "(stereo not shown)", "hERG current change (%, negative = inhibition) at 10uM": -26.6}
{"smiles": "COc1ccc(-c2ccc(=O)n(CC(=O)NCC3COCCO3)n2)cc1", "note": "(stereo not shown)", "hERG current change (%, negative = inhibition) at 10uM": -3.26}
{"smiles": "CCCCOc1ccc(/C=N/NC(=S)Nc2cc(C)ccc2C)cc1", "hERG current change (%, negative = inhibition) at 10uM": 1.18}
{"smiles": "CCN(CC)N=Nc1ccc(C(=O)[O-])cc1.[K+]", "hERG current change (%, negative = inhibition) at 10uM": -3.06}
{"smiles": "CC1CCCN(C(=O)CN2C(=O)c3ccccc3C2=O)C1", "note": "(stereo not shown)", "hERG current change (%, negative = inhibition) at 10uM": 7.23}
{"smiles": "COc1ccc(Nc2ccc(Cl)nn2)cc1", "hERG current change (%, negative = inhibition) at 10uM": 3.11}
{"smiles": "COc1cc(/C=C(/C#N)c2nc3ccccc3[nH]2)ccc1OCC(=O)Nc1ccccc1C(C)C", "hERG current change (%, negative = inhibition) at 10uM": -4.28}
{"smiles": "CCOC(=O)CC(NC(=O)Cn1nnc(-c2ccccc2)n1)c1ccc(OC)cc1", "note": "(stereo not shown)", "hERG current change (%, negative = inhibition) at 10uM": -28.7}
{"smiles": "O=C(O)c1cccc(NC(=S)NC(NC(=O)c2cccc([N+](=O)[O-])c2)C(Cl)(Cl)Cl)c1", "note": "(stereo not shown)", "hERG current change (%, negative = inhibition) at 10uM": 12.4}
{"smiles": "O=C(NCC1CCCO1)c1cn(Cc2ccccc2)nc1-c1ccccc1", "note": "(stereo not shown)", "hERG current change (%, negative = inhibition) at 10uM": -0.0253}
{"smiles": "Nn1c(SCC(=O)Nc2ccc3c(c2)OCCO3)nnc1-c1ccncc1", "hERG current change (%, negative = inhibition) at 10uM": -22.6}
{"smiles": "Cl.O[C@@H]1[C@@H](O)C=C2CCN3Cc4cc5c(cc4[C@H]1C23)OCO5", "note": "(stereo partly shown)", "hERG current change (%, negative = inhibition) at 10uM": 20.2}
{"smiles": "O=C(CSc1nc2ccccc2c(=O)n1CCCN1CCOCC1)N1CCN(c2ccccc2)CC1", "hERG current change (%, negative = inhibition) at 10uM": -70.6}
{"smiles": "O=C(Nc1ccc2nc(-c3ccc(Br)o3)[nH]c2c1)c1ccco1", "hERG current change (%, negative = inhibition) at 10uM": -21.4}
{"smiles": "O=C(CCN1C(=O)/C(=C\\c2ccccc2F)SC1=S)N1CCCCC1", "hERG current change (%, negative = inhibition) at 10uM": 9.02}
{"smiles": "CCCC12CN3CC(C)(CN(C1)C3c1ccco1)C2=O", "note": "(stereo not shown)", "hERG current change (%, negative = inhibition) at 10uM": -4.64}
{"smiles": "CCOc1ccc2c(c1)/C(=C(\\C(Cl)=C(Cl)Cl)[N+](=O)[O-])N2", "hERG current change (%, negative = inhibition) at 10uM": 16.2}
{"smiles": "CCOc1ccc(-n2c(CCc3ccccc3)n[nH]c2=S)cc1", "hERG current change (%, negative = inhibition) at 10uM": -2.91}
{"smiles": "CCOc1ccc(N(CC(=O)Nc2ccc(C)c(F)c2)C2=NC3CS(=O)(=O)CC3S2)cc1", "note": "(stereo not shown)", "hERG current change (%, negative = inhibition) at 10uM": 2.97}
{"smiles": "C=CCN1c2ccccc2C(=O)CS1(=O)=O", "hERG current change (%, negative = inhibition) at 10uM": 2.87}
{"smiles": "COc1cc2cc(C(=O)O)[nH]c2c(OC)c1OC", "hERG current change (%, negative = inhibition) at 10uM": 13.3}
{"smiles": "CC(C)Cn1cnc2c1c(=O)n(C)c(=O)n2C", "hERG current change (%, negative = inhibition) at 10uM": 27.8}
{"smiles": "Fc1ccc(C(c2nnnn2Cc2ccccc2)N2CCSCC2)cc1", "note": "(stereo not shown)", "hERG current change (%, negative = inhibition) at 10uM": -2.85}
{"smiles": "CCc1ccc(NC(=O)COC(=O)CCCC2=NS(=O)(=O)c3ccccc3N2)cc1", "hERG current change (%, negative = inhibition) at 10uM": -1.3}
{"smiles": "COc1ccccc1CCNC(=O)C1CCC(=O)N(C2CC2)C1", "note": "(stereo not shown)", "hERG current change (%, negative = inhibition) at 10uM": 15.9}
{"smiles": "O=C(CCCOc1ccccc1)Nc1ccc(Cl)cn1", "hERG current change (%, negative = inhibition) at 10uM": -3.18}
{"smiles": "O=C(c1ccccc1-c1ccccc1)N1CCOCC1", "hERG current change (%, negative = inhibition) at 10uM": 14.4}
{"smiles": "N#Cc1c(N)nc2c(c1-c1ccc(Br)s1)CCCC2", "hERG current change (%, negative = inhibition) at 10uM": 3.34}
{"smiles": "COc1ccc(C(=O)Nc2ccc(NC(C)=O)cc2)cc1S(=O)(=O)N1CCCC1", "hERG current change (%, negative = inhibition) at 10uM": 14.8}
{"smiles": "CCn1cc(C(=O)Nc2ccc(Cl)cc2Cl)cn1", "hERG current change (%, negative = inhibition) at 10uM": -6.55}
{"smiles": "O=C(c1ncc[nH]1)c1cccs1", "hERG current change (%, negative = inhibition) at 10uM": 6.93}
{"smiles": "Cc1ccc(/C=C/C(=O)NCCCN2CCN(CCCNC(=O)/C=C/c3ccc(C)cc3)CC2)cc1", "hERG current change (%, negative = inhibition) at 10uM": -0.473}
{"smiles": "COc1ccc(NC(=S)NC(=O)/C=C/c2ccc(F)cc2)cc1", "hERG current change (%, negative = inhibition) at 10uM": 13.6}
{"smiles": "CCn1c(SCC(=O)Nc2oc(-c3ccccc3)c(-c3ccccc3)c2C#N)nnc1-c1ccncc1", "hERG current change (%, negative = inhibition) at 10uM": -68.2}
{"smiles": "O=C(Nc1ccccc1)C1=C[C@H](c2csc3ccccc23)C[C@H](OCCCCO)O1", "hERG current change (%, negative = inhibition) at 10uM": -5.71}
{"smiles": "CCOc1ccc(S(=O)(=O)N/N=C(\\C)c2ccc3c(c2)OCO3)cc1", "hERG current change (%, negative = inhibition) at 10uM": 21.9}
{"smiles": "N#Cc1ccc(C(=O)CSc2nnc(-c3ccc(C(F)(F)F)cn3)s2)cc1", "hERG current change (%, negative = inhibition) at 10uM": 18.3}
